Assay results: paper PMC11995724, “Antibiotic target discovery by integrated phenotypic and activity-based profiling of electrophilic fragments” (Cell chemical biology, 2025)
The campaign covered roughly 3,200 compounds. About 110 (3.4%) showed an effect of 50% or more. This is one part of the list.

These compounds were tested on T1, V. cholerae SAD30. Details: relative growth, OD600, LB; 25 µM; inhibitor.
T1 construct: SAD30
Parameters: species or system S. aureus MSSA476 (TSB) or V. cholerae SAD30 (LB); 384-well bacterial growth screen at 25 uM, OD600 relative to DMSO control
In the case of `CCCc1ccc(-c2csc(NC(=O)CCl)n2)cc1` [4-C09, 2-chloro-N-[4-(4-propylphenyl)-1,3-thiazol-2-yl]acetamide], the “% of control remaining” value is reported as 93.3362%. For `Cc1cc(N2CCCC(NC(=O)C(C)Cl)C2=O)n(C)n1` (stereo not drawn) [7-B13, 2-chloro-N-[1-(1,3-dimethyl-1H-pyrazol-5-yl)-2-oxopiperidin-3-yl]propanamide], the “% of control remaining” value was 83.2645%. `O=C1C=CC(=O)N1c1cnccn1` [10-P07, 1-(pyrazin-2-yl)-2,5-dihydro-1H-pyrrole-2,5-dione] was tested, and the “% of control remaining” value was 97.4089%. With `C=CC(=O)N1CCC(C(=O)Nc2cc(OCC)ccc2Cl)CC1` [1-I20, N-(2-chloro-5-ethoxyphenyl)-1-(prop-2-enoyl)piperidine-4-carboxamide] the “% of control remaining” value was 84.006%. In the case of `C=CC(=O)N1CCCC(C(=O)O)C1` (stereo not drawn) [1-G12, 1-(prop-2-enoyl)piperidine-3-carboxylic acid], the “% of control remaining” value is reported as 97.0105%. With `COc1ccc(C(NC(=O)CCl)C2CC2)cc1` (stereo not drawn) [4-K19, 2-chloro-N-[cyclopropyl(4-methoxyphenyl)methyl]acetamide] the “% of control remaining” value was 103.343%. With `CC1=CSC(=C(C#N)C(=O)NCc2ccco2)N1c1ccccc1` [8-D13, 2-cyano-N-[(furan-2-yl)methyl]-2-(4-methyl-3-phenyl-2,3-dihydro-1,3-thiazol-2-ylidene)acetamide] the “% of control remaining” value was 70.7682%. `COc1ccc(Cc2cnc(NC(=O)CCl)s2)cc1` [4-F17, 2-chloro-N-{5-[(4-methoxyphenyl)methyl]-1,3-thiazol-2-yl}acetamide] was tested, and the “% of control remaining” value was 111.451%. In the case of `Cc1ccc(NC(=O)C(C#N)=Cc2ccccc2OC(F)F)cc1` [9-D05, 2-cyano-3-[2-(difluoromethoxy)phenyl]-N-(4-methylphenyl)prop-2-enamide], the “% of control remaining” value is reported as 79.6057%. In the case of `O=C(CCl)NC(Cc1cccc(O)c1)c1ccccc1` (stereo not drawn) [7-N20, 2-chloro-N-[2-(3-hydroxyphenyl)-1-phenylethyl]acetamide], the “% of control remaining” value is reported as 81.5463%. For `C=CC(=O)N1CCCC1c1cccc(C)c1` (stereo not drawn) [1-N11, 1-[2-(3-methylphenyl)pyrrolidin-1-yl]prop-2-en-1-one], the “% of control remaining” value was 86.846%. `C=CC(=O)Nc1cc(SCc2ccccc2C)ncn1` [1-F08, N-(6-{[(2-methylphenyl)methyl]sulfanyl}pyrimidin-4-yl)prop-2-enamide] was tested, and the “% of control remaining” value was 109.421%. With `C=CC(=O)N1CCCN(S(N)(=O)=O)CC1` [3-K10, 4-(prop-2-enoyl)-1,4-diazepane-1-sulfonamide] the “% of control remaining” value was 92.0897%. In the case of `Cc1ccsc1-c1nnc(NC(=O)CCl)o1` [6-K03, 2-chloro-N-[5-(3-methylthiophen-2-yl)-1,3,4-oxadiazol-2-yl]acetamide], the “% of control remaining” value is reported as 105.109%. `CC(Cl)C(=O)N1CCCC1c1cccc(N(C)C)c1` (stereo not drawn) [7-A22, 2-chloro-1-{2-[3-(dimethylamino)phenyl]pyrrolidin-1-yl}propan-1-one] was tested, and the “% of control remaining” value was 87.7581%. For `CC(Cl)C(=O)N(C)Cc1ncc(C2CC2)o1` (stereo not drawn) [5-B22, 2-chloro-N-[(5-cyclopropyl-1,3-oxazol-2-yl)methyl]-N-methylpropanamide], the “% of control remaining” value was 108.774%. With `C=CC(=O)N(C)c1ccc(C#N)c(Cl)c1` [3-G05, N-(3-chloro-4-cyanophenyl)-N-methylprop-2-enamide] the “% of control remaining” value was 100.029%. `COc1cccc(NC(=O)C(C#N)=Cc2c[nH]c(-c3ccccc3)n2)c1` [9-C20, 2-cyano-N-(3-methoxyphenyl)-3-(2-phenyl-1H-imidazol-4-yl)prop-2-enamide] was tested, and the “% of control remaining” value was 84.0925%. `N#CC(=Cc1ccc(-c2cccc([N+](=O)[O-])c2)s1)C(=O)NC1CC1` [9-G18, 2-cyano-N-cyclopropyl-3-[5-(3-nitrophenyl)thiophen-2-yl]prop-2-enamide] was tested, and the “% of control remaining” value was 86.1319%. `CC(Cl)C(=O)NC1CCCN(c2cnn(C)c2)C1` (stereo not drawn) [7-K19, 2-chloro-N-[1-(1-methyl-1H-pyrazol-4-yl)piperidin-3-yl]propanamide] was tested, and the “% of control remaining” value was 79.4317%. In the case of `C=CC(=O)NC(C)(C)c1noc(CCC)n1` [1-N10, N-[2-(5-propyl-1,2,4-oxadiazol-3-yl)propan-2-yl]prop-2-enamide], the “% of control remaining” value is reported as 67.2228%. `N#CC(=Cc1c(F)cccc1F)C(=O)NCCc1ccccc1` [8-D18, 2-cyano-3-(2,6-difluorophenyl)-N-(2-phenylethyl)prop-2-enamide] was tested, and the “% of control remaining” value was 66.8253%. In the case of `O=C(CCl)Nc1nc2ccc([N+](=O)[O-])cc2s1` [4-H08, 2-chloro-N-(6-nitro-1,3-benzothiazol-2-yl)acetamide], the “% of control remaining” value is reported as 112.832%. With `Cc1ccc(NC(=O)C(C#N)=Cc2cccc(Cl)c2Cl)cc1` [8-D06, 2-cyano-3-(2,3-dichlorophenyl)-N-(4-methylphenyl)prop-2-enamide] the “% of control remaining” value was 77.0224%. In the case of `O=C(CCl)NCc1ccn(Cc2ccccc2)n1` [7-H10, N-[(1-benzyl-1H-pyrazol-3-yl)methyl]-2-chloroacetamide], the “% of control remaining” value is reported as 82.6037%. For `C=CC(=O)Nc1ccc(-n2ccccc2=O)cc1F` [3-J16, N-[2-fluoro-4-(2-oxo-1,2-dihydropyridin-1-yl)phenyl]prop-2-enamide], the “% of control remaining” value was 91.7368%. For `C=CC(=O)NC(C)c1nc(C2CCCCC2)no1` (stereo not drawn) [1-N17, N-[1-(3-cyclohexyl-1,2,4-oxadiazol-5-yl)ethyl]prop-2-enamide], the “% of control remaining” value was 87.5934%. `C#Cc1cccc(N(Cc2cc3n(n2)CCCO3)C(=O)CCl)c1` [5-O10, 2-chloro-N-(3-ethynylphenyl)-N-({5H,6H,7H-pyrazolo[3,2-b][1,3]oxazin-2-yl}methyl)acetamide] was tested, and the “% of control remaining” value was 99.1909%. For `CC(Cl)C(=O)NC(C)c1ccc(Cl)cc1Cl` (stereo not drawn) [5-M15, 2-chloro-N-[1-(2,4-dichlorophenyl)ethyl]propanamide], the “% of control remaining” value was 80.8658%. `CC(Cl)C(=O)N1CCCN(C(=O)c2cc(Cl)cn2C)CC1` (stereo not drawn) [7-N07, 2-chloro-1-[4-(4-chloro-1-methyl-1H-pyrrole-2-carbonyl)-1,4-diazepan-1-yl]propan-1-one] was tested, and the “% of control remaining” value was 80.8855%. With `C=CC(=O)N1CCC(C(=O)NC2CCCc3cc(F)ccc32)CC1` (stereo not drawn) [2-K18, N-(6-fluoro-1,2,3,4-tetrahydronaphthalen-1-yl)-1-(prop-2-enoyl)piperidine-4-carboxamide] the “% of control remaining” value was 78.153%. With `C=CC(=O)N1CCC(c2nc(C)no2)CC1` [3-E05, 1-[4-(3-methyl-1,2,4-oxadiazol-5-yl)piperidin-1-yl]prop-2-en-1-one] the “% of control remaining” value was 109.381%. In the case of `COc1ccc(CCN2C(=O)C=CC2=O)cc1OC` [10-H07, 1-[2-(3,4-dimethoxyphenyl)ethyl]-2,5-dihydro-1H-pyrrole-2,5-dione], the “% of control remaining” value is reported as 98.344%. In the case of `C=CC(=O)N1CSCC1C(=O)N1CCOCC1` (stereo not drawn) [2-N21, 1-[4-(morpholine-4-carbonyl)-1,3-thiazolidin-3-yl]prop-2-en-1-one], the “% of control remaining” value is reported as 96.0629%. With `NS(=O)(=O)c1cccc(N2C(=O)C=CC2=O)c1` [10-I05, 3-(2,5-dioxo-2,5-dihydro-1H-pyrrol-1-yl)benzene-1-sulfonamide] the “% of control remaining” value was 102.396%. For `C=CC(=O)Nc1cc(Cl)cc(C)c1OC` [1-E16, N-(5-chloro-2-methoxy-3-methylphenyl)prop-2-enamide], the “% of control remaining” value was 87.145%. In the case of `O=C1C=CC(=O)N1c1cc(C(F)(F)F)ccc1Cl` [10-G09, 1-[2-chloro-5-(trifluoromethyl)phenyl]-2,5-dihydro-1H-pyrrole-2,5-dione], the “% of control remaining” value is reported as 26.3394%. With `CC(Cl)C(=O)N1Cc2ccccc2OC(C)(C)C1` (stereo not drawn) [6-H19, 2-chloro-1-(2,2-dimethyl-2,3,4,5-tetrahydro-1,4-benzoxazepin-4-yl)propan-1-one] the “% of control remaining” value was 89.7905%. For `Cc1cccc(NC(=O)C(C#N)=Cc2cnc3ccc(C#N)cn23)c1` [9-O18, 2-cyano-3-{6-cyanoimidazo[1,2-a]pyridin-3-yl}-N-(3-methylphenyl)prop-2-enamide], the “% of control remaining” value was 90.3467%. `O=C(CCl)N1c2ccccc2Sc2ccc(Cl)cc21` [4-N07, 2-chloro-1-(2-chloro-10H-phenothiazin-10-yl)ethan-1-one] was tested, and the “% of control remaining” value was 99.3746%. With `CCOC(=O)c1c2c(nn1C)CCN(C(=O)C(C)Cl)C2` (stereo not drawn) [7-I07, ethyl 5-(2-chloropropanoyl)-2-methyl-2H,4H,5H,6H,7H-pyrazolo[4,3-c]pyridine-3-carboxylate] the “% of control remaining” value was 74.5415%. `COc1ccc2c(c1)CCCN(C(=O)C(C)Cl)C2` (stereo not drawn) [5-D17, 2-chloro-1-(7-methoxy-2,3,4,5-tetrahydro-1H-2-benzazepin-2-yl)propan-1-one] was tested, and the “% of control remaining” value was 91.4574%. For `Cc1cc(C(C)(C)C)cc(C)c1NC(=O)CCl` [4-L19, N-(4-tert-butyl-2,6-dimethylphenyl)-2-chloroacetamide], the “% of control remaining” value was 96.4417%. For `O=C(CCl)N1N=C(c2cccc(F)c2)CC1c1cccs1` (stereo not drawn) [4-E22, 2-chloro-1-[3-(3-fluorophenyl)-5-(thiophen-2-yl)-4,5-dihydro-1H-pyrazol-1-yl]ethan-1-one], the “% of control remaining” value was 114.729%. In the case of `C=CC(=O)N1CCC(C(=O)N2CCCC2C2OCCO2)CC1` (stereo not drawn) [2-L12, 1-{4-[2-(1,3-dioxolan-2-yl)pyrrolidine-1-carbonyl]piperidin-1-yl}prop-2-en-1-one], the “% of control remaining” value is reported as 91.2767%.
